# Reference: PubChem BioAssay AID463173 (ICCB-Longwood Screening Facility, Harvard Medical School, 2010)
# The campaign covered roughly 52,000 compounds. About 1,700 (3.3%) were called active. Rule as the data show it: active = survival mostly below about 52% (no sharp cut-off); inactive = mostly above about 56%. The list shows a part of the results.
# System: Wild type
# Test: S. aureus survival, RN4220 and DeltatarO strains – OD600, teichoic acid synthesis inhibitors, primary screen (AID 463173)
# Conditions: S. aureus RN4220 wild type/DeltatarO growth, OD600, 18 h, hits give low values, screened at 18.75 µg/mL (by protocol)
row,Structure (SMILES),survival
1,CCC(Cn1nnc2ccccc2c1=O)NC(=O)Nc1cc(Cl)ccc1OC (centres undefined),inactive: 77%
2,Cc1cccc(Cn2c(CNS(=O)(=O)c3ccc(Cl)s3)nc3cccnc32)c1,inactive: 101%
3,Cc1ccc2[nH]c(CSc3nnc(NC(=O)COc4ccccc4F)s3)cc(=O)c2c1,inactive: 76%
4,CCOc1ccc(-c2cc3c(=O)n(CC(=O)Nc4c(C)cccc4C)ccn3n2)cc1,inactive: 85%
5,CC(C)CN(CCNC(=O)c1cc(=O)[nH]c2ccc(S(=O)(=O)N3CCCCCC3)cc12)CC(C)C,inactive: 82%
6,Cn1c(=O)oc2cc(S(=O)(=O)NCCC(=O)Nc3ccc(F)c(Cl)c3)ccc21,inactive: 85%
7,Cc1ccc(C)c(OCCOCCn2c(-c3ccc(Br)cc3)nc3ccccc3c2=O)c1C,inactive: 67%
8,Cc1cc(SCCN2CCOCC2)nc2ccccc12,inactive: 113%
9,Cc1ccc(Cl)cc1NC(=O)/C(C#N)=C/c1c(C)n(Cc2ccccc2)c2ccccc12,inactive: 80%
10,Cc1cc2ncn(CCC(=O)Nc3ccccc3F)c2cc1C,inactive: 105%
11,CC1CCCCN1C(=O)CSc1nnc(-c2cccc(Cl)c2)o1 (centres undefined),inactive: 81%
12,CC(=O)N1CCCc2cc(S(=O)(=O)N(C)CC(=O)Nc3ccc(F)c(Cl)c3)ccc21,inactive: 125%
13,Fc1ccc(-c2csc(-c3nc(-c4ccc(Br)s4)cs3)n2)cc1,inactive: 62%
14,C1CCC2(CC1)C1=C(CCCC1)Nc1nnnn12,inactive: 107%
15,CCOc1ccc(NC(=O)CCCN2C(=O)C(c3ccccc3)Oc3cccnc32)cc1 (centres undefined),inactive: 88%
16,CCCCN(C)CCNC(=O)Cn1ncc2c3ccccc3n(CCC)c2c1=O,inactive: 120%
17,COc1ccc(C2(O)CCN(CC(=O)NC(C)C)CC2)cc1,inactive: 96%
18,Cc1ccc(NC(=O)c2ccc3nc(Cc4ccccc4)oc3c2)cc1F,inactive: 19%
19,CCN(CC)c1ccc2cc(-c3nnc(-c4cccc(Cl)c4)o3)c(=O)oc2c1,inactive: 73%
20,Cc1cccc(-c2noc(CN(C(=O)c3ccc(C)c(C)c3)C(C)C)n2)c1,active: 0%

row,Structure (SMILES),survival
1,Cc1ccc(NC(=O)c2ncn(-c3ccccc3)n2)c(Cl)c1,inactive: 89%
2,COc1ccc(C)cc1N(C)C(=O)c1sc2nc3n(c(=O)c2c1C)CCCCC3,inactive: 81%
3,Cc1csc2nc(-c3cccc(NC(=O)c4cccc(F)c4)c3)cn12,inactive: 136%
4,O=C(CN(C(=O)c1cc2c(s1)CCC2)C1CCCC1)NCc1cccs1,inactive: 101%
5,CCCCCn1c(=O)[nH]c2cc(C(=O)NCc3ccc(C)cc3)ccc2c1=O,inactive: 87%
6,OC(COc1ccc(Cl)cc1Cl)CN1CCCCC1 (centres undefined),inactive: 102%
7,CCOc1ccc(CCNC(=O)C2=C(C)C(=O)OC23CCC(C)CC3)cc1OCC (centres undefined),inactive: 76%
8,Cc1ccc(C(=O)c2oc3ccccc3c2NC(=O)c2nc(S(C)(=O)=O)ncc2Cl)cc1F,inactive: 83%
9,COc1cccc(NC(=O)CSc2nc(-c3ccccc3)nc3c2Cc2cc(Cl)ccc2O3)c1,inactive: 89%
10,CCOc1cc(C#N)c(NC(=O)c2ccc(OC)c(S(=O)(=O)N3CCCC3)c2)cc1OCC,inactive: 73%
11,O=S(=O)(c1ccccc1)c1nc(-c2ccc(F)cc2)oc1N1CCOCC1,inactive: 73%
12,CCOC(=O)c1cccc(NC(=O)CC(c2ccc(F)cc2)N2Cc3ccccc3C2=O)c1 (centres undefined),inactive: 83%
13,CCN(Cc1ccccc1)C(=O)C1CCN(Cc2cc(Br)c(O)c(OC)c2)CC1,inactive: 102%
14,CCCOc1ccc(OC(=O)c2sc3ncn(Cc4cccc(F)c4)c(=O)c3c2C)cc1,inactive: 56%
15,O=C(c1nc(-c2ccc(Cl)cc2)n2c1CCCCC2)N1CCN(c2ccc(F)cc2)CC1,inactive: 70%
16,CCOC(=O)Cn1nnnc1CN(CCc1ccc(OC)c(OC)c1)Cc1cc2c(C)ccc(C)c2[nH]c1=O,inactive: 99%
17,Cc1nc2cc(-c3cccc(F)c3)nn2c(C)c1CCC(=O)N1CCN(c2ccc(F)cc2)CC1,inactive: 63%
18,CN(C(=O)c1cc2sccc2n1C)C1CCCCC1,inactive: 116%
19,O=C(Cn1nnc2sc3c(c2c1=O)CCCC3)Nc1ccc(F)c(Cl)c1,inactive: 33%
20,CCN1C(=O)c2ccccc2Sc2ccc(NC(=O)c3ccc(C)c(F)c3)cc21,inactive: 85%

row,Structure (SMILES),survival
1,COc1cccc(NC(CNS(=O)(=O)c2ccc(C)cc2)c2ccccc2)c1 (centres undefined),inactive: 98%
2,CN(Cc1ccccc1)c1ncnc2c1nc1n2CCCC1,inactive: 65%
3,CC(=O)Nc1ccc(Nc2cc(C)nc3ccccc23)cc1,inactive: 111%
4,CCCS(=O)(=O)NCCc1csc2nc(-c3ccc(OC)cc3)nn12,inactive: 63%
5,COc1ccc(C2NC(=O)NC(C)=C2C(=O)Nc2cc(C)cc(C)c2)c(OC)c1 (centres undefined),inactive: 71%
6,Cc1ccccc1CNC(=O)CCCn1nc(C)c2sc3ccccc3c2c1=O,inactive: 92%
7,CCc1c(C)nc2nncn2c1Nc1ccc(C)c(F)c1,inactive: 83%
8,Cc1ccc(CS(=O)(=O)Cc2ccc(C(=O)NCCc3ccc(Cl)cc3)o2)cc1,inactive: 91%
9,COc1cc(OC)cc(C(=O)Nc2ccc3nc(N4CCC(C)CC4)cc(C)c3c2)c1,inactive: 68%
10,COc1cccc(C(=O)Nc2nnc(S(=O)(=O)N3CCOCC3)s2)c1,inactive: 84%
11,CCCCOc1cccc(C(=O)Nc2cccc3ccc(C)nc23)c1,inactive: 75%
12,CCC12CN3CC(CC)(CN(C1)C3c1ccc(OCc3ccccc3)cc1)C2=O (centres undefined),inactive: 92%
13,Cc1cc(C)c2c(=O)cc(C(=O)Nc3ccccc3Cl)oc2c1,inactive: 88%
14,Cc1ccc2c(CC(=O)Nc3cc(C(F)(F)F)ccc3Cl)coc2c1C,inactive: 95%
15,CCOC(=O)c1c(C)[nH]c(C)c1S(=O)(=O)N1CCC(C(=O)Nc2ccccn2)CC1,inactive: 57%
16,O=C(Nc1ccc2c(c1)oc1ccccc12)c1cccs1,inactive: 117%
17,Cc1ccc2oc(=O)n(CCNC(=O)Nc3ccccc3Cl)c2c1,inactive: 90%
18,COc1ccc2oc(=O)c(C(=O)N3CCC(C(N)=O)CC3)cc2c1,inactive: 103%
19,COc1ccc(C2CC(=O)Nc3c2c(=O)nc2c(C)cccn32)cc1 (centres undefined),inactive: 78%
